Hit rate of the full screen: of about 310,000 compounds, about 14,000 (4.5%) showed an effect of 50% or more. The effect is printed as a negative number. Some of the results follow.
molecular target: human ether-à-go-go-related gene (hERG) potassium channel (human, UniProt Q12809); assay: primary screen, population patch clamp on CHO cells stably expressing hERG
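Also: peak tail current of the secondary pulse compared with the same well before compound.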

Sequence of human ether-à-go-go-related gene (hERG) potassium channel (Q12809 whole entry, looked up): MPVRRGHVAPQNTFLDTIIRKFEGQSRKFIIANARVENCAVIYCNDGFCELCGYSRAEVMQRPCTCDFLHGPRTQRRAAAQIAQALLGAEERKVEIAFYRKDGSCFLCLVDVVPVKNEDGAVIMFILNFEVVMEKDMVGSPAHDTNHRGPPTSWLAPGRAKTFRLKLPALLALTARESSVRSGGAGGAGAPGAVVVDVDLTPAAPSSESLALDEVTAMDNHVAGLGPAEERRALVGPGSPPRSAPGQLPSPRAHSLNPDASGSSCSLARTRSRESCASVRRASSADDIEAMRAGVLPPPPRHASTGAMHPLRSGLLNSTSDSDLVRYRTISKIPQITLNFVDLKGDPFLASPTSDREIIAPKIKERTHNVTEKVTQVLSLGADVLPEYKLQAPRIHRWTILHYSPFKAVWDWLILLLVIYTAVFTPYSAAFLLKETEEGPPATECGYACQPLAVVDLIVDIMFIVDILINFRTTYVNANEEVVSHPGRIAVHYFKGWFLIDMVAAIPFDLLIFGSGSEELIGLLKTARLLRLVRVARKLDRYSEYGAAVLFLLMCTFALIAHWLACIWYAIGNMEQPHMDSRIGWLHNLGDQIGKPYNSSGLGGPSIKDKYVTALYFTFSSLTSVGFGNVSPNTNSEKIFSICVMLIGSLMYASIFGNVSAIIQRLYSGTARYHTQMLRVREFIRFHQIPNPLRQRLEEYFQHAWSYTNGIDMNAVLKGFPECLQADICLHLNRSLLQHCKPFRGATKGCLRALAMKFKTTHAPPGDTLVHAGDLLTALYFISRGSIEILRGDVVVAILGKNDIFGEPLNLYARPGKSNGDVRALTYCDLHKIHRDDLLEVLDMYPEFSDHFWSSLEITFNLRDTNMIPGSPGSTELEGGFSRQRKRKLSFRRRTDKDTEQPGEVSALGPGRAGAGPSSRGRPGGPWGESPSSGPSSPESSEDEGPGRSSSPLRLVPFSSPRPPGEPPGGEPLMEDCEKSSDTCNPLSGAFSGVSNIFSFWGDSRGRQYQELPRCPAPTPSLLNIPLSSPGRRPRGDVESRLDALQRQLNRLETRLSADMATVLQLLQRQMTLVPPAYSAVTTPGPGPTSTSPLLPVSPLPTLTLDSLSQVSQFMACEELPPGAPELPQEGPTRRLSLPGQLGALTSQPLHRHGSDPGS

| Structure (SMILES) | hERG current change (%, negative = inhibition) at 10uM [%] |
| --- | --- |
| CCCCOP(=O)(c1ccc(N(C)C)cc1)C(O)c1ccc(C(C)C)cc1 (stereo not drawn) | -13 |
| Cc1cc(Cl)ccc1OCCCC(=O)NCCc1nnc2ccccn12 | -18.4 |
| Cc1ccc(CNS(=O)(=O)c2c(C(=O)N3CCCCCC3)c(C)n(C)c2C)cc1 | 10.9 |
| CCOC(=O)c1ccc(NC(=O)CSc2nnc(CNc3ccc(OC)cc3)n2C)cc1 | -2.57 |
| Cc1ccc(-c2noc(CSc3nnc(-c4ccccc4)n3C)n2)cc1 | -3.5 |
| COC(=O)CCCC1=CC2=CC(=O)C(C)(OC(=O)c3cccs3)C(=O)C2=CN1CC(C)C (stereo not drawn) | -5.68 |
| Cc1cc2occ(CC(=O)NNC(=O)c3ccccc3)c2cc1C | 8.99 |
| C/C(CCN1CCCCc2nc(C)c(C)cc21)=N\O[C@@H](C)CN1CCCCc2nc(C)c(C)cc21 | -48.4 |
| COc1ccc(OC)c(C(O)CNC(=O)CN)c1.Cl (stereo not drawn) | 0.471 |
| COc1ccc(C)cc1NS(=O)(=O)c1cccc2nonc12 | -10.7 |
| Cc1ccnc2nc(C(=O)OC(C)C(=O)NCc3ccccc3)nn12 (stereo not drawn) | -4.57 |
| COc1ccc(C2CC(c3ccc(Cl)cc3Cl)Nc3nc(N)nn32)cc1OC (stereo not drawn) | -18.7 |
| Cc1nn(CCCC(=O)Nc2cnn(Cc3ccc(F)cc3)c2)c(C)c1[N+](=O)[O-] | -1.27 |
| CS(=O)(=O)N(CCc1ccccc1)CC(=O)N1CCN(c2ccc(F)cc2)CC1 | -33.3 |
| Cc1sc2nc(CSCC(=O)Nc3ccccc3C#N)[nH]c(=O)c2c1C | 2.5 |
| COC(=O)COc1ccc(NC(=O)C(c2ccccc2)c2ccccc2)cc1 | 3.4 |
| CCNS(=O)(=O)c1ccc(CCC(=O)NCc2ccc3c(c2)OCO3)cc1 | -0.364 |
| CCNc1nc(SCC(=O)Nc2ccccc2)nc(N2CCOCC2)n1 | 8.03 |
| Cc1cc([N+](=O)[O-])cnc1N1CCOCC1 | 11.8 |
| COC(=O)C(C)Sc1nc2ccsc2c(=O)n1Cc1ccccc1 (stereo not drawn) | -39.1 |
| CC(O)CNC(=O)Cc1cc(=O)[nH]c(=O)[nH]1 (stereo not drawn) | 23.9 |
| Cc1occc1C(=O)NNS(=O)(=O)c1ccc(Cl)cc1 | 7.64 |
| Cc1cc(C(F)(F)F)n2ncc(-c3ccc(F)cc3)c2n1 | 14.1 |
| O=C(Cn1ncc2c([nH]c3ccccc32)c1=O)NCCc1ccccc1 | 3.06 |

Source: publication PMC4336329 (PLoS ONE, 2015)
